This is an account of results in ChEMBL document CHEMBL4888484, “Replenishing the malaria drug discovery pipeline: Screening and hit evaluation of the MMV Hit Generation Library 1 (HGL1) against asexual blood stage Plasmodium falciparum ,using a nano luciferase reporter read-out” (2022).

As a reminder, the % Inhibition is the drop in the measured response relative to a control, in per cent.

Each structure is given as a SMILES string. Screen size: about 150,000 compounds; about 540 (0.36%) showed an effect of 50% or more. This is one part of the list.

In the experiment the test system is Plasmodium falciparum. Nature of the experiment: Primary screen in NF54 nanoGlo assay, in single point, at 2uM, 72h; a lower Z score goes with more inhibition. It is filed as functional, Erythrocyte. Conditions: timepoint 72 hour.
In the case of `Cc1ccnc(NC(=O)CN(C)S(C)(=O)=O)c1Br`, the “% Inhibition” value worked out at 9% and the Z score is recorded as -1.67.
As for `CCN(CCC(F)(F)F)C(=O)c1[nH]nc(C2CC2)c1Cl`, the “% Inhibition” value was -1% and the Z score worked out at 0.07.
In the same order, the values of `O=C(N[C@H]1CCCc2ccccc21)C1CCOCC1` are -8% and 1.48.
In the same order, the values of `CCN1CCCc2cc(CCNC(=O)C(=O)NCC(C)C)ccc21` are 1% and -0.17.
For `Cn1nc(C2CC2)cc1NC(=O)N[C@H](c1cccnc1)C(F)(F)F` the same measures were 2% and -0.25.
As to `Cc1ccc(C(=O)N2CCN(C(=O)c3ccsc3)CC2)cn1`, the “% Inhibition” value is on record as -15% and the Z score stood at 1.56.
For `Cc1onc(-c2ccccc2)c1C(=O)N1CC(C)S(=O)(=O)C(C)C1` (stereo not drawn) the same measures were -6% and 0.74.
In the same order, the values of `Nc1ccc(-c2sc(N)nc2-c2ccc(Oc3ccccc3)cc2)cc1` are -7% and 1.05.
In the case of `Cc1nnc(NC(=O)[C@@H]2CCCN2c2ncnc3sccc23)s1`, the “% Inhibition” value is recorded as -3% and the Z score came out at 0.54.
In the same order, the values of `CC(C)(C)OC(=O)N1CCC[C@H]1c1nnc(NCc2ccco2)o1` are -7% and 1.05.
In the same order, the values of `O=C(c1ccccc1)N(Cc1cc(-c2ccccc2)on1)C1CC1` are -10% and 1.18.
As for `CC(C)[C@@H]1N(C(=O)Nc2ccccc2N2CCCCC2=O)CC12CC=CC2`, the “% Inhibition” value is recorded as -9% and the Z score is reported as 1.73.
In the same order, the values of `Cc1c(F)cccc1NC(=O)Cc1nc(Cc2ccc(Cl)cc2)n[nH]1` are -5% and 0.62.
As for `CCn1nc(C)c(CNS(=O)(=O)c2ccc(Cl)s2)c1C`, the “% Inhibition” value was -6% and the Z score is 1.08.
In the same order, the values of `CCOc1ncc(C(=O)N(CC)c2ccc(OC)nc2)cc1Cl` are -12% and 1.04.
Take `Cc1ccccc1C(=O)Nc1sc(-c2ccccc2)c(C)c1C(=O)N1CCOCC1`: the “% Inhibition” value is listed as 8% and the Z score is given as -1.04.
Take `O[C@H]1CNCCN(Cc2cnc(-c3cccc4ccccc34)nc2)C1`: the “% Inhibition” value turned out to be 11% and the Z score was -1.48.
For `Cc1ccc(Cl)cc1N1CCN(c2ncnc(N3CCOCC3)c2C#N)CC1` the same measures were -25% and 2.53.
`Cc1cccnc1[C@H](C)NC(=O)C1(C)COC1`: the “% Inhibition” value is reported as -9% and the Z score was 0.92.
For `Cc1ccc(OCC(=O)Nn2c(=O)[nH]c3ccccc3c2=O)c(C(C)C)c1` the same measures were -5% and 0.65.
In the same order, the values of `O=C(Cn1nnnc1CN1CCCCCC1)N1CCN(Cc2ccc(F)cc2)C(=O)C1` are -6% and 1.18.
For `CC1CCN(CCCc2noc(C(C)(C)NS(C)(=O)=O)n2)CC1` the same measures were -8% and 1.4.
Consider `Cc1ccc(C(=O)NCC(F)(F)F)cc1N`, for which the “% Inhibition” value is -6% and the Z score is 0.55.
In the same order, the values of `Cn1cc(C(O)CC2CCCN2CCCOc2ccc3c(c2)OCO3)cn1` (stereo not drawn) are -13% and 1.68.
